# Results as given in PubChem BioAssay (NCATS).
# Inconclusive results, whose numbers are uncertain, are shown with a selection of clear calls. No potency is given beside an inconclusive call; the fits are too rough. The source made the active and inactive calls. The call rests on the fitted dose curve; in most records, active means well fitted curve in the direction sought with a large enough effect; inconclusive means small, poorly fitted or top-dose-only effect, or another doubt; inactive means no such curve, though single readings can be large; an effect the other way counts as inactive or inconclusive.
# Experiments:
# [1] = target: Aldehyde dehydrogenase, mitochondrial (Homo sapiens) (UniProt P05091); assay: qHTS for Inhibitors of the Aldehyde Dehydrogenase Family (ALDH2) Primary screen (AID 2061308); conditions: ALDH2 enzyme inhibition qHTS, 1536-well; series mostly up to 56 µM; further: nearly all actives have a fitted effect of over 55% in size
# [2] = target: Retinaldehyde dehydrogenase 3 (Homo sapiens) (UniProt P47895); assay: qHTS for Inhibitors of the Aldehyde Dehydrogenase Family (ALDH1A3) Validation screen (AID 2061312); conditions: ALDH1A3 enzyme inhibition qHTS validation, fluorescence; series mostly up to 42.4 µM; further: nearly all actives have a fitted effect of over 45% in size
# [3] = target: Retinaldehyde dehydrogenase 3 (Homo sapiens) (UniProt P47895); assay: qHTS for Inhibitors of the Aldehyde Dehydrogenase Family (ALDH1A3) Primary screen (AID 2061315); conditions: ALDH inhibition qHTS; series mostly up to 56 µM
# [4] = BET inhibitor-based combinations targeting novel dependencies in MECOM-rearranged (r) AML: HNT-34 cell line (AID 2202234); conditions: HNT-34 AML viability, CellTiter-Glo luminescence, 48 h; series mostly up to 46 µM; further: nearly all actives have a fitted effect of over 35% in size
# In short: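 First, 500 cells per well were seeded; next, drugs were pinned as 11-point doses; then plates sat 48 hr in the incubator; finally CellTiter-Glo was added and luminescence read, with AUC and Z-AUC computed.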
# [5] = BET inhibitor-based combinations targeting novel dependencies in MECOM-rearranged (r) AML: AML-191 cell line (AID 2202236; further: nearly all actives have a fitted effect of over 35% in size); conditions: AML-191 viability, CellTiter-Glo luminescence, 48 h; series mostly up to 46 µM
# In short: (§1)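 Each compound was tested at eleven concentrations on cells seeded at 500/well. After two days' incubation, ATP-based luminescence reported viability; responses relative to DMSO and blank wells yielded AUC and cell-line-centred Z-AUC.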
# [6] = BET inhibitor-based combinations targeting novel dependencies in MECOM-rearranged (r) AML: OCI-AML3 cell line (AID 2202232); conditions: CellTiter-Glo luminescence, 48 h; Potency: OCI-AML3 viability; series mostly up to 46 µM; further: nearly all actives have a fitted effect of over 35% in size
# In short: as §1
# Potency means the concentration at half of the fitted maximal effect; tags describe the fitted curve by direction and shape.
smiles,measurement,setting,value
c1cncc(OC[C@@H]2CCN2)c1,Potency,[1],"inconclusive [inhibitor, partial curve, poor fit]"
same,Potency,[2],"inconclusive [inhibitor, full curve]"
CCOc1ccc(CCNC(=O)c2cc3sccc3n2CCN(C)C)cc1OCC,Potency,[1],inactive
C[C@@H]1[C@H](O)[C@@H](C)/C=C/C=C/CC/C=C/C=C/C=C/C=C/[C@H](O[C@H]2O[C@@H](C)[C@H](O)[C@@H](N)[C@H]2O)C[C@@H]2O[C@](O)(C[C@@H](O)[C@H](O)CC[C@@H](O)C[C@@H](O)C[C@@H](O)CC(=O)O[C@H]1C)C[C@H](O)[C@H]2C(=O)O,Potency,[1],inactive
FC(F)(F)c1ccc(N2CCNCC2)nc1Cl,Potency,[1],"inconclusive [inhibitor, partial curve, poor fit]"
same,Potency,[2],inactive
Cn1c(CCCC(=O)O)nc2cc(N(CCCl)CCCl)ccc21,Potency,[2],"inconclusive [inhibitor, full curve, poor fit]"
CC1CCCCCC(=O)c2c(O)cc(O)cc2CC(=O)O1 (stereo unspecified),Potency,[1],inactive
O=S(=O)(Nc1cccc2ccccc12)c1ccc(NCc2cccc(Cl)c2O)cc1,Potency,[1],"inconclusive [inhibitor, partial curve, poor fit]"
same,Potency,[3],"inconclusive [inhibitor, partial curve]"
CN1CCC2=C(C1)c1ccccc1Cc1ccccc12,Potency,[1],inactive
same,Potency,[2],"inconclusive [inhibitor, full curve, poor fit]"
CC(=O)OCC1=C(C(=O)O)N2C(=O)[C@@H](N)[C@H]2SC1,Potency,[1],"inconclusive [inhibitor, single point]"
Cc1o[nH]c(=O)c1CC(N)C(=O)O (stereo unspecified),Potency,[2],"inconclusive [inhibitor, partial curve, poor fit]"
Cc1cc(SCc2sc(-c3ccc(C(F)(F)F)c(F)c3)nc2C)ccc1OCC(=O)O,Potency,[1],"inconclusive [inhibitor, partial curve, poor fit]"
same,Potency,[4],"inconclusive [inhibitor, single point]"
same,Potency,[5],inactive
C[C@H]1CCC[C@H](O)CCC/C=C/c2cc(O)cc(O)c2C(=O)O1,Potency,[1],inactive
same,Potency,[3],inactive
C=C(C)[C@@H]1[C@H]2OC(=O)[C@H]1[C@]1(O)C[C@H]3O[C@]34C(=O)O[C@H]2[C@]14C,Potency,[1],inactive
CC(N)Cc1c[nH]c2ccc(O)cc12 (stereo unspecified),Potency,[2],inactive
CCCCn1cc(C(=O)c2cccc3ccccc23)c2ccccc21,Potency,[2],"inconclusive [inhibitor, full curve, poor fit]"
CN1C(=O)[C@]23CC4C(C)(C)[C@@]5(C[C@@]41CN2CC[C@@]3(C)O)C(=O)Nc1c5ccc2c1OC=CC(C)(C)O2 (stereo partly specified),Potency,[1],"inconclusive [inhibitor, partial curve, poor fit]"
COc1cc(CCNCc2ccccc2O)c(OC)cc1C#N,Potency,[1],inactive
Cc1cccc(NC(=O)N[C@@H]2N=C(c3ccccc3)c3ccccc3N(C)C2=O)c1,Potency,[1],inactive
same,Potency,[2],inactive
CC(=O)O[C@H]1CN2CCC1CC2,Potency,[1],inactive
S=P(c1ccccc1)(c1ccccc1)c1c(-c2ccccc2)[nH]c2ccccc12,Potency,[1],"inconclusive [inhibitor, full curve, poor fit]"
O=C(O)c1ccc(O)c2ncc(N3CCCNCC3)cc12,Potency,[1],"inconclusive [inhibitor, full curve, poor fit]"
CN1CC[C@@]2(C)c3cc(O)ccc3N(C)C2O1 (stereo partly specified),Potency,[1],"inconclusive [inhibitor, full curve, poor fit]"
same,Potency,[3],"inconclusive [inhibitor, partial curve]"
COc1ccc(C(=O)N2CCCC2=O)cc1,Potency,[2],inactive
same,Potency,[6],"inconclusive [inhibitor, partial curve, poor fit]"
N=C(N)c1ccc(CS(=O)(=O)F)cc1,Potency,[2],"inconclusive [inhibitor, partial curve, poor fit]"
O=C(NCC1CCOCC1)c1cnc(Nc2ccc(Cl)cc2Cl)nc1C(F)(F)F,Potency,[2],"inconclusive [inhibitor, full curve, poor fit]"
same,Potency,[3],inactive
same,Potency,[6],inactive
same,Potency,[5],"inconclusive [inhibitor, partial curve, poor fit]"
CCCN(CCC)[C@H]1CCc2c(F)ccc(O)c2C1,Potency,[2],"inconclusive [inhibitor, partial curve, poor fit]"
CCOC(=O)C1(CCc2ccccc2)CCN(Cc2ccc(NC(C)=O)cc2)CC1,Potency,[2],inactive
O=C(N[C@H]1CN2CCC1CC2)c1cc2cccc(Cl)c2s1,Potency,[2],"inconclusive [inhibitor, full curve, poor fit]"
C1=C(c2cnc[nH]2)c2ccsc2CC1,Potency,[2],active: 5.62 µM
same,Potency,[3],"inconclusive [inhibitor, partial curve, poor fit]"
C[N+](C)(C)CCOC(=O)CBr,Potency,[2],"inconclusive [inhibitor, full curve, poor fit]"
CN(C(=O)CN1C(=O)COc2cc(Cl)c(Cl)cc21)[C@@H](CN1CCCC1)c1ccc(-c2cccc(C(N)=O)c2)cc1,Potency,[2],"inconclusive [inhibitor, full curve]"
same,Potency,[3],"inconclusive [inhibitor, partial curve]"
